According to the RNAGym collection of RNA variant scans (doi:10.7554/elife.90254):
The source gives no read counts; variants with many changes may rest on few reads.

B1: LINE1-full (parent)
chain: UACGUAGGUGGUUUUCCCCUGAUAGUGCUAAGGGGGCCUGGAAGUUUGGACUGGGCAGAGCUCAACACAGCGUGGCAAAGUGGCUGUGGCUAGACUGCCUCUCUGGAUUCCUCGUCACUCAGCAGGGCAUCUCUGAGAGAAAUGCC

Variants of: B1
Test: self-cleavage, relative activity (ratio to wild type); higher = more cleavage; in vitro, sequencing; the parent is a self-cleaving ribozyme

Variant | self-cleavage
C71U A79U A129G A142G | 0.73
A69G U81G A107G | 0.44
A64U A78G G114A | 0.22
C63U A79U U91C U112C | 0.25
A69G G80U U87C | 0
A64U A67G C131U | 0.04
A69U U100C U134C | 0.14
A69U U81C U115C | 0.05
U62G U81C A107U U109A A124G | 0.51
C68U A121G U143A | 0.2
U62C U100C U104C | 0
A64G U104C A129G A136U A141G | 0.54
A69G U100C A141G | 0.29
A67G G80A U81A A129U | 0.99
A67G A124U G126A A138G | 0.57
A69C U130A U132A | 0.14
A69G A121G G127A | 0.76
A67U U91C A138U | 0.02
A69G U102C U130C | 0
A67U U109C A129G | 0.21
A65G G86A A138G | 0.03
A69U U112C G125U | 0.05
C68U U96C C146U | 0.04
A67U U96C C111G | 0.07

Variant | self-cleavage
A64G A79G U91C | 0.46
A69G A77U U104C C131U | 0
A65G U119C A142G | 0.11
A65G U104C A107U A121U | 0.69
A65U A92G U108C A124U U143C | 0.13
U62C U102C G122A | 0.04
A64G A79U A124G A138U A140G | 0
A64U A65U A129G | 0.04
U62C U96C A142G | 0.06
C71A U96C U119C A121G | 0.03
A67G U130C G144A | 0.77
A67G A79U U104C U132A G144A | 0.42
A69U A77U U91C | 0.04
A67C U112A A142G | 0.12
A69U U100A U115C | 0
A69U U100C U130C | 0
A64G A79G A140G | 0.16
C68U U104A U115C A129U | 0.1
A67U U100C U108C | 0.13
A69G U109A G135U | 0.24
A65C C66U U87C U119A | 0.02
A67G U143A G144A | 0.79
A69G A117C U134C | 1.29
C68U A107G U119A | 0.05

Variant | self-cleavage
C68U A77G A107U A117G A124U | 0.38
A69U U100C U115C U134C U143A | 0.51
A69U G74A A136U G139U U143A | 0.06
A65U G86A U109A U134C | 0.02
A65G U119C A140U | 0
C66U G126A U132C | 0.1
A67G C99A A142G | 0
A69G U96C C113U | 0
A67G A124G U132C | 0.23
A67G A79G U130C | 0.42
A69U U81A U104A | 0.02
A65G A79U C95U | 0.07
C68U A129G A141G | 0.12
A67C A92G A107U | 0
A65G A79G U134C | 0
G70A U81A A92U U115C A117U | 0.12
A65C U102C U143C | 0.03
A67G G114A U115A | 0.36
A64U U87C U134C | 0.16
A64U U96C U132C | 0.12
A64G U96A A138G | 0.06
C63A A65G U73A | 0.01
U62C U108C C145U | 0.05
A69U U73C C76U A121U A138G | 0.2

Variant | self-cleavage
A65G U100A U115C | 0.09
A69G U115C A129G | 0.84
A64U A69U U87C | 0.04
A64G U109C A121G | 0
A69G U81A C118A A142G | 0.32
A67G U85A A94U A141G | 0.17
U62G U112C A136G | 0.13
A64U A69U A117G | 0
A69G C76U U102C | 0.76
A65G U104G A124U | 0
A64G G83A U85C | 0.05
A69U U102A C116U | 0.05
C68U U132C A136G | 0.48
A64U A69G A78G G80A A141G | 0.11
A69U A136G A140G | 0.05
C68U A94G U102C U115C A136G | 0.22
A64G C76U U87C A117U | 0.15
A69U U85C C113A A140G | 0.03
A64G A77U A121G | 0.4
A69G U108C A129C A140G | 0
A69G U104A U130C | 0.17
A67U C98A U104A U108C | 0.03
A69G C113U A129G | 0.33
A64U A65G U73A U96G | 0

Variant | self-cleavage
C71U C120U A136G | 1.14
A64U U96A U119A | 0.02
A65G U73C A78G | 0
A67G U87A U132G A141G | 0.19
A69U A78G A129G U130C | 0
A65G G82A U91A U143G | 0.02
A69U A121G A129G | 0
C66U C95U A117U C120U A136G | 0
G72A A77G G137A | 1.8
A65G C113A C131U | 0.04
A64G A94G C116A U134C | 0.12
U62C U96A C128U | 0
A67G U73C U112A | 0.81
A67U U108C A138U A142G | 0.35
A65C G97U U102C A107U | 0.02
U62C U91A U134G | 0.11
A64U U115C U132C | 0.59
A69G A142G U143C | 0
A65G G88A U100C A129G | 0.06
A65G C116A A121G | 0.03
A67G A77G A94G C113U C131G A138U | 0
A65G A129G A141G | 0
A64U A79G A94U | 0.22
A65U U73A U87C A117U U132C A136U | 0

Variant | self-cleavage
A64G U104C C128U A138G A142G | 0.47
C66A U81C A140G U143C | 0.06
C66U A79G C146U | 0.03
C71A G86U G106U A121G | 0.03
A65U U87A U112C A129G U143C | 0.03
C63U A94U U119A A124G | 0.04
C71A U87C A124G | 0.01
A69G U81C C103A | 0
A64G G75C U112A A140G | 0.15
A67U A94G A141G | 0.42
A69U U112C U132C | 0.04
A67G A77G G89U | 0.05
C71U A94U U109C | 0.06
A65U U73C G105A U143C | 0.22
A67U C103U U112C | 0.06
C71U U96C U102C | 0.52
A67G A79G U104A | 0
A65G U96A U130C | 0.09
A67U U102C A140G | 0.42
U62C U112C A138G | 0.11
A65G U85C U104C | 0
A69G C101A U108C G114A U134A | 0.23
A65G A117C A138G | 0.06
A65G A69G U100C | 0

Variant | self-cleavage
A65U A77U U108C C113A | 0.04
C63U U119C U130C | 0.32
A65G A121U A136G | 0.05
A64U U100C U132C | 0.69
A64U A77U C99U C111U U119C A129G G144A | 0.22
A69G U73A A79G U96C | 0
U62C U96A C113A | 0.03
A69G C90U A107G A121G A124G | 0
C71U A79U U112C A140G | 0.16
A69G C118A U130C | 0.5
A64G A69G G127C | 0
A65G A117G A138U | 0
A65G A78U U112A A129U U132C A140G | 0.19
A65U G74A A77G A138G | 0.07
A64G U102C U130C U134C | 0.8
A65G U73A U96A | 0.03
A65G A94G A136G | 0
C66U C71U C113U | 0.04
A65U U104C U112C A136G | 0
A67C U96C A141G | 0
U62C U96A A121C | 0.07
A65U A94G U96A | 0.08
A64U C66G U73A | 0.02
